# The whole screen tested about 52,000 compounds, of which about 4,300 (8.3%) were called active. Cut-off read from the data, not from the text of the source: active = survival mostly below about 52% (no sharp cut-off); inactive = mostly above about 56%. This is one part of the list.
# Test system: DeltatarO mutant
# Experiment: growth inhibition of S. aureus wild type versus tarO mutant, primary screen, teichoic acid synthesis inhibitors, RN4220, OD600 (AID 463173)
# Conditions: OD600, 18 h, active compounds read low, screened at 18.75 µg/mL (by protocol)
row,SMILES,survival
1,COc1ccc(S(=O)(=O)N2CCC(C(=O)Nc3ccc(Oc4ccccc4)cc3)CC2)cc1OC,inactive: 57%
2,COc1ccc(NC(=O)c2ccc(-c3nc(COc4ccccc4)c(C)o3)cc2)cc1,inactive: 75%
3,O=C(O)CCN1C(=O)CSC1=O,inactive: 72%
4,COc1ccc(NC(=O)CSc2nc3ccccc3n2CC(=O)NCc2ccc(F)cc2)cc1,active: -5%
5,CC(C)NC(=O)c1ccc(OC2CSC2)cc1,inactive: 98%
6,COC(=O)c1ccc(NC(=O)c2cc3cc(C)ccc3n2C)cc1,inactive: 66%
7,Cc1ccccc1OCC(=O)Nc1ccc(OCc2cc(=O)n3ccccc3n2)cc1,inactive: 77%
8,COc1ccc(Cl)cc1NC(=O)C1CCCN(S(=O)(=O)c2ccc3c(c2)CCCC(=O)N3)C1 (centres undefined),inactive: 119%
9,Cc1ccc(CNC(=O)c2ccc3oc(=O)n(Cc4ccccc4)c3c2)cc1,inactive: 64%
10,O=C(CSc1nc2c(c(=O)[nH]1)CN(Cc1ccc3c(c1)OCO3)CC2)Nc1cc(F)ccc1F,inactive: 79%
11,CCC1Oc2ccc(C)cc2N(CC(=O)NC(C)C)C1=O (centres undefined),inactive: 100%
12,COC(=O)c1ccccc1NC(=O)Cn1nc(C)c2nn(-c3ccc(Cl)cc3)c(C)c2c1=O,inactive: 94%
13,Cc1cccc(NC(c2cccc(Cl)c2)c2ccc3cccnc3c2O)n1 (centres undefined),active: 2%
14,COc1cc(NC(=O)Nc2nnc(N3CCCCC3)s2)cc(OC)c1,inactive: 68%
15,CC1CCc2nc3ccc(S(=O)(=O)N4CCC(C(=O)NCc5ccccc5Cl)CC4)cc3c(C(=O)O)c2C1 (centres undefined),inactive: 99%
16,Cc1nn(-c2ccccc2)c2c1N(CCCC(=O)NCc1ccc(OC(C)C)cc1)C(=O)CS2,inactive: 84%
17,O=c1c2[nH]c3ccccc3c2nc(SCc2ccccc2F)n1-c1ccc(F)cc1,inactive: 83%
18,CCc1ccccc1NC(=O)Cn1nc(-c2cc(C)ccc2C)c2c(c1=O)CCCC2,active: 41%
19,O=C1C2C3c4ccccc4C(c4ccccc43)C2C(=O)N1CN1CCOCC1 (centres undefined),inactive: 78%
20,Cc1ccc(Cn2cc(S(=O)(=O)c3ccccc3)c(=O)c3cc(F)c(N4CCOCC4)cc32)cc1,inactive: 85%
21,COc1ccc(NC(=O)C(c2ccc(OC)cc2)N(C)C(=O)Cc2cccs2)cc1 (centres undefined),inactive: 61%
22,Cn1ccc2cc(S(=O)(=O)N3CCN(C(=O)Nc4cccc(F)c4)CC3)ccc21,inactive: 102%
23,COc1cccc(C(=O)CN2C(=O)C(C)(C)Oc3ccc(C(=O)N4CCOCC4)cc32)c1,inactive: 83%

row,SMILES,survival
1,COc1ccccc1N1CCN(S(=O)(=O)CCNC(=O)c2cc(=O)c3ccccc3o2)CC1,inactive: 87%
2,CC(C)(Oc1ccc(Cl)cc1)C(=O)Nc1ccc(-c2nc3ncccc3o2)cc1,inactive: 52%
3,CCCCOC(=O)c1ccc(NC(=O)C2(c3cccs3)CCOCC2)cc1,inactive: 83%
4,CC(=O)N1CCc2cc(CNS(=O)(=O)c3cccs3)ccc21,inactive: 75%
5,COc1ccc(-c2nnc(SCC(=O)Nc3cccc(C)c3)s2)cc1,inactive: 91%
6,CCOC(=O)c1c(NC(=O)CSc2cn(CCNC(=O)c3ccc(OC)cc3)c3ccccc23)sc2c1CCC2,inactive: 78%
7,CC1(C)CC(NC(=O)c2ccccc2Cl)CC(C)(C)N1,inactive: 63%
8,COc1ccccc1-c1cc(C(=O)Nc2c(C)nn(Cc3ccc(Cl)cc3)c2C)no1,active: 29%
9,COc1ccc(NC(=O)CSc2nccn2C2CCCC2)cc1OC,inactive: 89%
10,Cc1nn(CC(=O)Nc2ccc(C(C)C)cc2)c(=O)c2c(C)n(-c3ccc(Cl)cc3)nc12,inactive: 92%
11,COc1ccc(-c2cn3nc(N4CCCC(C(=O)Nc5ccccc5F)C4)sc3n2)cc1 (centres undefined),inactive: 83%
12,CCOc1ccccc1N(C)C(=O)c1sc2nc3n(c(=O)c2c1C)CCCC3,inactive: 64%
13,CCCCN(CCCNC(=O)c1cc(Nc2ccc(OC)cc2OC)nc2ccccc12)Cc1ccccc1,inactive: 99%
14,O=C(CSc1nc(=O)n(Cc2ccncc2)c2c1CCC2)Nc1ccccc1,inactive: 68%
15,COc1cccc(N2CCN(C(=O)CCn3nc(C)c(S(=O)(=O)N4CCCC4)c3C)CC2)c1,inactive: 92%
16,COc1cccc(CNC(=O)CCc2c(C)c3cc4c(C)coc4cc3oc2=O)c1,inactive: 63%
17,COc1ccc(C(CNC(=O)COc2cc(C)c(Cl)c(C)c2)N2CCCCC2)cc1 (centres undefined),inactive: 83%
18,Cc1ccccc1C(=O)Nc1cccc(-c2nc3cccnc3s2)c1,inactive: 81%
19,Cc1cc(C)c2c(n1)sc1c(N3CCN(CCO)CC3)ncnc12,inactive: 109%
20,CCC(Oc1ccccc1)C(=O)Nc1nnc(S(=O)(=O)N2CCCC2)s1 (centres undefined),inactive: 103%
21,CCc1ccc(OCC(=O)Nc2c(C(=O)c3ccc(Br)cc3)oc3ccccc23)cc1,inactive: 85%
22,Nc1ccc(S(=O)(=O)N2CCCC(C(=O)O)C2)cc1 (centres undefined),inactive: 95%
23,CCOc1cccc2sc(=NC(=O)c3ccc(S(=O)(=O)N4CCOCC4)cc3)n(C)c12,inactive: 77%

row,SMILES,survival
1,CCn1cc(C(=O)N2CCN(c3ccccc3OC)CC2)c2cc(OC)c(OC)cc2c1=O,inactive: 63%
2,COc1ccc2c(=O)c(NC(=O)Nc3ccc(F)cc3F)c[nH]c2c1,inactive: 92%
3,CCN1C(=O)C(C2SC(=S)N(CC)C2=O)SC1=S (centres undefined),inactive: 95%
4,COc1ccc(C(=O)Nc2ccc3c(c2)CCCN3S(=O)(=O)c2ccc(C)cc2)cc1,inactive: 76%
5,c1ccc2sc(N3CCN(Cc4nnnn4C4CCCC4)CC3)nc2c1,inactive: 85%
6,COc1ccc(NC(=O)c2oc3ccccc3c2NC(=O)c2cc(=O)c3ccccc3o2)cc1,inactive: 83%
7,CCCCN(CCCC)CCn1cnc2c([nH]c3ccc(OC)cc32)c1=O,inactive: 119%
8,COc1ccc(CNC(=O)c2ccc(-c3nc(CSc4ccccc4)c(C)o3)cc2)cc1,inactive: 80%
9,O=C(Nc1ccccc1)NC1(C(=O)N2CCN(C(=O)c3ccco3)CC2)CCCCC1,inactive: 70%
10,CCOc1ccccc1NC(=O)C1CCCN(C(=O)Nc2ccccc2)C1 (centres undefined),inactive: 96%
11,CCOC(=O)c1cnc2c(OC)cccc2c1N1CCN(c2ccccc2F)CC1,active: 1%
12,CC(=O)N1CCN(CCN=CC2=C(O)CC(c3ccco3)CC2=O)CC1 (centres undefined),inactive: 107%
13,COc1ccc(CCNC(=O)CCCCn2c(=O)c3ccccc3n(Cc3cccc(C)c3)c2=O)cc1OC,inactive: 92%
14,CCOC(=O)c1c(NC(=O)C(C)Oc2ccccc2F)sc(C(C)=O)c1C (centres undefined),inactive: 52%
15,c1ccc(N=C(c2cccs2)N2CCOCC2)cc1,inactive: 107%
16,Cc1nn2c(=O)cc(COC(=O)c3ccccc3NC(=O)C3CCCCC3)nc2s1,inactive: 73%
17,CCOc1ccc(N(CC)S(=O)(=O)N2CCCC(C(=O)NCc3ccccc3OCC)C2)cc1 (centres undefined),inactive: 79%
18,O=C(NCCc1csc(-c2cccc(F)c2)n1)c1ccco1,inactive: 94%
19,COc1cc(C(=O)N(CCCN(C)C)c2nc3c(OC)cccc3s2)cc(OC)c1OC,inactive: 122%
20,O=C(NC1CCCC1)c1ccc2c(c1)N(Cc1c(F)cccc1Cl)C(=O)c1ccccc1S2,inactive: 116%
21,CCc1ccc(-c2nc(CN3CCCC(C(=O)NCc4ccccc4Cl)C3)c(C)o2)cc1 (centres undefined),inactive: 67%
22,Cc1ccc2c(c1)-c1nc(-c3ccccc3)cc(-c3ccccc3)c1CO2,inactive: 91%
23,CCCN(CCC)S(=O)(=O)c1ccc(C(=O)N2CCC(=O)c3ccccc32)cc1,inactive: 94%

row,SMILES,survival
1,Cc1[nH]c2ccccc2c1C1(O)C(=O)Nc2ccc(Cl)cc21 (centres undefined),inactive: 66%
2,COc1cccc(C(=O)NCC(c2ccc3c(c2)OCO3)N2CCN(C)CC2)c1 (centres undefined),inactive: 112%
3,Cc1ccc(-n2c3c(c(=O)[nH]c2=O)C(NC(=O)C(C)(C)C)(C(F)(F)F)C(=O)N3)cc1 (centres undefined),inactive: 55%
4,COc1ccc(OC)c(NC(=O)CCCOc2cc(=O)n(C)c3ccccc23)c1,inactive: 63%
5,CC(Nc1ccccc1)c1ccncc1 (centres undefined),inactive: 80%
6,COc1cccc(NC(=O)CSC2=Nc3ccccc3C3=NC(CCC(=O)NC4CCCCC4)C(=O)N23)c1 (centres undefined),inactive: 78%
7,Cc1nn(CC(=O)NC(C)c2ccccc2)c(=O)c2cc3occc3n12 (centres undefined),inactive: 90%
8,Cc1cc2ncn(S(=O)(=O)c3ccc(S(=O)(=O)NCC4CCCO4)cc3)c2cc1C (centres undefined),inactive: 82%
9,COc1cccc2c1Oc1ncccc1N(C(=O)CCC(=O)NCc1ccc(OC(C)C)cc1)C2,inactive: 83%
10,CCOC(=O)C1=C(CN2CCN(c3ccc(Cl)cc3)CC2)NC(=O)NC1c1ccc(F)cc1 (centres undefined),inactive: 70%
11,NC(=O)COc1ccc(-c2noc(COc3ccc(Cl)cc3)n2)cc1,inactive: 153%
12,O=C(CSc1nc2c([nH]c3ccccc32)c(=O)n1-c1ccccc1)Nc1ccccc1C(F)(F)F,inactive: 87%
13,NS(=O)(=O)c1ccc(CCNC(=O)Cn2c(=O)c3cccn3c3ccc(F)cc32)cc1,inactive: 89%
14,COc1ccc2c(c1)CC(C(=O)Nc1c(C)cc(C)cc1C)CO2 (centres undefined),inactive: 75%
15,COc1cc(OC)c(NC(=O)Cn2c(=O)nc(-c3ccccc3)c3ccccc32)cc1Cl,inactive: 102%
16,COCCCNc1oc(-c2ccc(COc3ccccc3C)o2)nc1C#N,active: 43%
17,COc1cccc(Cn2c(=O)n(-c3cc(C)cc(C)c3)c(=O)c3oc4ccccc4c32)c1,inactive: 62%
18,Cc1nnc(N(Cc2ccco2)C(=O)c2cccc(C#N)c2)s1,inactive: 94%
19,CCc1ccccc1NC(=O)Cn1cc(C(=O)c2ccncc2)c(=O)c2cc(C)ccc21,inactive: 83%
20,O=C(CCSCCc1ccccn1)Nc1ccccc1C(F)(F)F,inactive: 73%

# From PubChem BioAssay AID463173 (ICCB-Longwood Screening Facility, Harvard Medical School, 2010)
